# This list was built around the results that the source calls inconclusive (neither active nor inactive); the mix of calls is not that of the screen. Potencies beside an inconclusive call are fits to weak or partial responses and may not hold up. Active and inactive are the calls of the source. Unless noted, the call rests on the fitted dose curve.
# What was measured:
# [1] = target: Estrogen receptor beta (Homo sapiens) (UniProt Q92731); test: qHTS assay to identify small molecule antagonists of the estrogen receptor beta (ER-beta) signaling pathway (AID 1259378; active means well fitted inhibition curve with a large enough effect in the signal ratio in the repeat runs, not every such curve was filed as active; inconclusive means weak or mixed curves, or effect the other way; inactive means no such curve, though single readings can be large or run the other way; the % refers to the signal ratio; on activity, negative = inhibition: on the % scale 0 is the no-effect control and ±100 the full control effect); details: ER-beta-UAS-bla HEK293T, beta-lactamase FRET ratio, 16 h; activity, negative = inhibition: at 92.4 µM (top of the series) unless noted
# In short: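 ER-beta-UAS-bla HEK293T cells in 2% charcoal-stripped FBS medium treated with compound plus 1nM final 17-beta-estradiol for 16 hr at 37C. Beta-lactamase reporter read by FRET substrate fluorescence after 2 hours at room temperature.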
# [2] = target: Progesterone receptor (Homo sapiens) (UniProt P06401); test: qHTS assay to identify small molecule antagonists of the progesterone receptor (PR) signaling pathway (AID 1346795; active means well fitted inhibition curve with a large enough effect in the signal ratio in the repeat runs, not every such curve was filed as active; inconclusive means weak or mixed curves; the % refers to the signal ratio; on activity change, negative = inhibition: on the % scale 0 is the no-effect control and ±100 the full control effect); details: PR-UAS-bla HEK293T, beta-lactamase FRET ratio, 16 h; activity change, negative = inhibition: at 92.4 µM (top of the series) unless noted
# In short: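 Antagonist mode: compounds tested against 1 nM (final) promegestone stimulation in HEK293T cells expressing PR-UAS-bla reporter, 16 hr at 37C, 5% CO2; beta-lactamase activity detected via B/G FRET substrate after 2 hr at room temperature.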
# [3] = qHTS assay to identify small molecule agonists of the progesterone receptor (PR) signaling pathway - cell viability counter screen (AID 1346799); further: nearly all actives have a fitted effect of over 45% in size
# In short: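 Cells (PR-UAS-bla HEK293T) are plated at 3,000/well in 2% charcoal-stripped FBS medium, rested 6 hr, dosed and incubated 16 hr at 37C. CellTiter-Glo is then added and luminescence measured after 30 min at room temperature.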
# [4] = target: Thyrotropin receptor (Homo sapiens) (UniProt P16473); test: qHTS assay to identify small molecule antagonists of the thyroid stimulating hormone receptor (TSHR) signaling pathway (AID 1259385); details: TSHR-HEK293 cAMP HTRF, TSH-stimulated antagonist mode; activity change, negative = inhibition: at 92.4 µM (top of the series) unless noted; further: nearly all actives have a fitted effect of over 20% in size
# In short: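 TSHR-HEK293 cells (800/well) plated 18 h, then compounds with Ro20-1724 and TSH at 1.5 ng/mL final, 30 min at room temperature. cAMP quantified by HTRF (cAMP-d2/anti-cAMP-cryptate, 1 h); 15 concentrations in triplicate.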
# [5] = qHTS assay to identify small molecule antagonists of the progesterone receptor (PR) signaling pathway - cell viability counter screen (AID 1346798; active means well fitted curve in the direction sought with a large enough effect in the repeat runs; inconclusive means weak or mixed curves; inactive means no such curve, though single readings can be large; an effect the other way counts as inactive or inconclusive; further: nearly all actives have a fitted effect of over 50% in size)
# In short: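 Counter screen for cytotoxicity: viability of PR-UAS-bla HEK293T cells was measured with CellTiter-Glo luminescence following 16 hr compound exposure in the presence of R5020.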
# [6] = qHTS assay to identify small molecule agonists of the TGF-beta/Smad signaling pathway (AID 1346859; active means well fitted activation curve with a large enough effect in the signal ratio in the repeat runs, not every such curve was filed as active; inconclusive means weak or mixed curves; the % refers to the signal ratio; on activation: on the % scale 0 is the no-effect control and ±100 the full control effect); details: SBE-bla HEK293T, TGF-beta/Smad beta-lactamase reporter, 5 h; activation: at 76.8 µM (top of the series) unless noted
# In short: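 Reporter line: HEK 293T with stably integrated SBE-controlled beta-lactamase. Compound exposure lasts 5 hr at 37 C and 5% CO2; substrate loading follows for 2 hr at room temperature, with emission read at 460 and 530 nm.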
# [7] = qHTS assay to identify small molecule antagonists of the TGF-beta/Smad signaling pathway (AID 1346924; active means well fitted inhibition curve with a large enough effect in the signal ratio in the repeat runs, not every such curve was filed as active; inconclusive means weak or mixed curves; the % refers to the signal ratio); details: SBE-bla HEK293T, TGF-beta/Smad reporter, beta-lactamase ratio; activity, negative = inhibition: at 76.8 µM (top of the series) unless noted
# In short: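 SBE-bla HEK 293T cells were plated overnight, then received compound in DMSO plus TGF-beta1 (added as a 0.25 ng/mL solution) and were incubated 5 h at 37 C. Beta-lactamase reporter activity was read after 2 h at room temperature with LiveBLAzer B/G FRET substrate (ex 405, em 460/530 nm).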
# [8] = target: Progesterone receptor (Homo sapiens) (UniProt P06401); test: qHTS assay to identify small molecule agonists of the progesterone receptor (PR) signaling pathway (AID 1346784); details: PR-UAS-bla HEK293T, beta-lactamase FRET ratio, 16 h; activation: at 92.4 µM (top of the series) unless noted; further: nearly all actives have a fitted effect of over 30% in size; on activation: on the % scale 0 is the no-effect control and ±100 the full control effect
# In short: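 Cells (PR-UAS-bla HEK 293T, GripTite) were plated in assay medium containing 2% charcoal-stripped FBS and incubated 6 hr. Test compounds in DMSO were added for 16 hr at 37C. FRET substrate was then loaded for 2 hr at room temperature before fluorescence reading.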
# [9] = qHTS assay to identify small molecule agonists of the TGF-beta/Smad signaling pathway - cell viability counter screen (AID 1346829; active means well fitted curve in the direction sought with a large enough effect in the repeat runs; inconclusive means weak or mixed curves; inactive means no such curve, though single readings can be large; an effect the other way counts as inactive or inconclusive; further: nearly all actives have a fitted effect of over 45% in size)
# In short: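 Luminescence from CellTiter-Glo, read after a 30 min room-temperature incubation, gives cell viability of SBE-bla HEK 293T cells treated 5 hr with compounds at 37 C.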
# [10] = qHTS assay to identify small molecule agonists of the estrogen receptor alpha (ER-alpha) signaling pathway in the presence of an antagonist - cell viability counter screen (AID 1259386; active means well fitted curve in the direction sought with a large enough effect in the repeat runs; inconclusive means weak or mixed curves; inactive means no such curve, though single readings can be large; an effect the other way counts as inactive or inconclusive;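 further: cells exposed to compounds for 22 h at 37 °C before the viability read; nearly all actives have a fitted effect of over 30% in size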)
# In short: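 Viability counter screen using VM7Luc4E2 (full-length ER-alpha, four ERE-luciferase). The cells were treated with compounds alongside ICI-182,780 10.0nM for 22hr, and live-cell protease fluorescence was quantified with CellTiter-Fluor.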
# Potency means the concentration at half of the fitted maximal effect; tags describe the fitted curve by direction and shape or compound fluorescence and quenching.
# Sequence of UniProt P06401 (P06401 whole entry, looked up): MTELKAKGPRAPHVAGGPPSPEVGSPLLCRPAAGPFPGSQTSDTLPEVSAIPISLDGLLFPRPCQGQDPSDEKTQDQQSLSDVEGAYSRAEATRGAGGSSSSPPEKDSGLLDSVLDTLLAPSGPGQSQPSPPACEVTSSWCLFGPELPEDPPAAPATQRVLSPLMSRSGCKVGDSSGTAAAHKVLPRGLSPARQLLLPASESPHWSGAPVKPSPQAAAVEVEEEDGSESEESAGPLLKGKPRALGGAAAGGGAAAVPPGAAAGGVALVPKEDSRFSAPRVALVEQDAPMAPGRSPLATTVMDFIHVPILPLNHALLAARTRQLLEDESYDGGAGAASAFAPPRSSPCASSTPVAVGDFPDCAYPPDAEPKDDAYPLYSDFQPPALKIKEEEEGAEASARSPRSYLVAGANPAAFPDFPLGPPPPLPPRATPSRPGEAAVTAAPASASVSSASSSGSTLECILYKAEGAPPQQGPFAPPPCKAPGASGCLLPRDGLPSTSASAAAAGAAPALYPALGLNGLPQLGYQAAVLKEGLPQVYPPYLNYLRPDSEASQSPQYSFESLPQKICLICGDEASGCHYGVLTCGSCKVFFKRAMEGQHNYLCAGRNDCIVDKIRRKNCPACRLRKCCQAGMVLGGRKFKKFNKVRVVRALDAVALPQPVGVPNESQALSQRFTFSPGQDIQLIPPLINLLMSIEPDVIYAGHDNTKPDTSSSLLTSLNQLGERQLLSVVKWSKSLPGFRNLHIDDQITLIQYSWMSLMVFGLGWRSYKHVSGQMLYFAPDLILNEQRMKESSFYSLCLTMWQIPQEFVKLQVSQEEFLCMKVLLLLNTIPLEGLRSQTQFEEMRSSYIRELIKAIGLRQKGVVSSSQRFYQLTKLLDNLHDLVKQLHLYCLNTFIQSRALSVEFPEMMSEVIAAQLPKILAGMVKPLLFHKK
# Sequence of UniProt Q92731 (Q92731 whole entry, looked up): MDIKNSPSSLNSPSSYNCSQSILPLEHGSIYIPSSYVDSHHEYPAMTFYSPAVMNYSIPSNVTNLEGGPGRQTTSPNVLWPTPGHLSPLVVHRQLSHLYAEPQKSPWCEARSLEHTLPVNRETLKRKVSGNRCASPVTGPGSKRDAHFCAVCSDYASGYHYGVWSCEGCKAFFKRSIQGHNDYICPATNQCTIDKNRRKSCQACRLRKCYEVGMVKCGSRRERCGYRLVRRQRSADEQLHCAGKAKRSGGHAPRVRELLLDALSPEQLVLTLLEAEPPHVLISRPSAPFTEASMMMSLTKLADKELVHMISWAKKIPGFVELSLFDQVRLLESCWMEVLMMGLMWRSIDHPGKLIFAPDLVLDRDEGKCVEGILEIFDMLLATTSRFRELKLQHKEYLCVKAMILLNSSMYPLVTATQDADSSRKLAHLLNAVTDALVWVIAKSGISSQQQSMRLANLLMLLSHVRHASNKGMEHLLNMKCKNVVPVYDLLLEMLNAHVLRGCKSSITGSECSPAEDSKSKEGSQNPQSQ
# Sequence of UniProt P16473 (P16473 whole entry, looked up): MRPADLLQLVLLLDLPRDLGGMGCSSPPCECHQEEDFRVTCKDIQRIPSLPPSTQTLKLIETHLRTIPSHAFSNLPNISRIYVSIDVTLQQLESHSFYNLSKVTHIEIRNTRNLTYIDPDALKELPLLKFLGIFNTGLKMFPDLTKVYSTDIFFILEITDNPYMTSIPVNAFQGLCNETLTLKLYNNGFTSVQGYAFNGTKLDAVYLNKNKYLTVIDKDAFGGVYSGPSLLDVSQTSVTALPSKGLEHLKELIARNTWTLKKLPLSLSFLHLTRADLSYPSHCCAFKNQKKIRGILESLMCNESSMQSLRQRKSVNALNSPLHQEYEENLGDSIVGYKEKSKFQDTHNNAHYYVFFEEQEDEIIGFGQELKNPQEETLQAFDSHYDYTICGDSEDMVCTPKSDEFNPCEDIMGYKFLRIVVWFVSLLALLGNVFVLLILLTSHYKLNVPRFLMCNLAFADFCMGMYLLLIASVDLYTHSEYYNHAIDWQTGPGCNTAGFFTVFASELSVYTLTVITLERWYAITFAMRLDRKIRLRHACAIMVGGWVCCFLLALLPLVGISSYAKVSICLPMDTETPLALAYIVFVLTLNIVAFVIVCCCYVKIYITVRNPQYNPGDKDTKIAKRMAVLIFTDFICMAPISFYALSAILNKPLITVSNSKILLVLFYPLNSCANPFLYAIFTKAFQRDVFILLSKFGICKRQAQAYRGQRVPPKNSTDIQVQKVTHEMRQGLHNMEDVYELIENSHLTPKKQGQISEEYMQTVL
smiles,measurement,setting,value
Nc1ccc(S(=O)(=O)NCc2ccccc2)cc1,Potency,[1],inactive
same,Potency,[2],inactive
CCCCCCCC/C=C\CCCCCCCCO,Potency,[1],inactive
same,"activity change, negative = inhibition",[2],inconclusive: 2.71%
O=C(O)CCC(=O)C(=O)O,"activity, negative = inhibition",[1],inconclusive: 23.6%
same,Potency,[3],"inconclusive: 54.4 µM [cytotoxic, partial curve]"
CCCCN(CCN(CCCC)C(=O)N1CCOCC1)C(=O)N1CCOCC1,Potency,[1],"inconclusive: 4.73 µM [activator, partial curve]"
same,Potency,[4],"inconclusive: 2.37 µM [falling, full curve]"
same,"activity change, negative = inhibition",[2],inconclusive: -36.5% [at 42.5 µM]
same,Potency,[5],"inconclusive: 33.5 µM [cytotoxic, single point]"
same,Potency,[3],active: 29.8 µM
same,Potency,[6],"inconclusive: 8.49 µM [rising, partial curve]"
same,Potency,[7],"inconclusive: 1.2 µM [fluorescent, partial curve, poor fit]"
CCC=CC#N,Potency,[1],inactive
same,"activity change, negative = inhibition",[2],inconclusive: 7.25%
same,Potency,[3],inactive
Cc1cccc(C)c1OCC(=O)N[C@@H](Cc1ccccc1)[C@@H](O)C[C@H](Cc1ccccc1)NC(=O)[C@H](C(C)C)N1CCCNC1=O,Potency,[1],inconclusive: 15 µM [partial curve]
same,Potency,[8],"inconclusive: 33.5 µM [cytotoxic, single point]"
same,Potency,[2],inconclusive: 33.5 µM
same,Potency,[5],active: 29.8 µM
same,Potency,[3],"inconclusive: 23.7 µM [cytotoxic, partial curve]"
same,Potency,[9],"inconclusive: 30.1 µM [cytotoxic, single point]"
same,Potency,[6],"inconclusive: 23.9 µM [rising, single point]"
same,"activity, negative = inhibition",[7],inconclusive: -6.25% [at 35.3 µM]
Cc1ccc(C(C)(C)O)cc1,Potency,[1],inactive
same,"activity change, negative = inhibition",[2],inconclusive: 12.8%
same,Potency,[3],inactive
CC(=O)CCCCn1c(=O)c2c(ncn2C)n(C)c1=O,Potency,[1],inactive
same,Potency,[8],inactive
O=C=NCC1CCCC(CN=C=O)C1 (stereo not drawn),"activity, negative = inhibition",[1],inconclusive: 21.5%
same,Potency,[5],inactive
CCCCC1=NC2(CCCC2)C(=O)N1Cc1ccc(-c2ccccc2-c2nn[nH]n2)cc1,Potency,[1],inactive
same,Potency,[10],"inconclusive: 15 µM [cytotoxic, full curve]"
same,"activity, negative = inhibition",[7],inconclusive: -3.91% [at 35.3 µM]
COc1ncnc(NS(=O)(=O)c2ccc(N)cc2)c1OC,Potency,[1],inactive
same,Potency,[3],"inconclusive: 18.8 µM [rising, partial curve, poor fit]"
c1ccc(-c2ccccn2)nc1,"activity, negative = inhibition",[1],inconclusive: -31.1%
same,Potency,[2],"inconclusive: 27.3 µM [falling, partial curve]"
same,Potency,[3],"inconclusive: 43.3 µM [rising, partial curve]"
Cc1ccc2c(Br)cc(Br)c(O)c2n1,Potency,[1],"inconclusive: 7.5 µM [inhibitor, single point]"
same,Potency,[10],"inconclusive: 33.5 µM [cytotoxic, single point]"
same,Potency,[8],"inconclusive: 6.68 µM [falling, full curve, poor fit]"
same,Potency,[2],active: 18.8 µM
same,Potency,[5],"inconclusive: 11.9 µM [rising, full curve]"
same,Potency,[3],"inconclusive: 8.41 µM [rising, full curve]"
same,"activity, negative = inhibition",[7],inconclusive: 5.26% [at 35.3 µM]
CN(C)c1ccc(C2(c3ccc(N(C)C)cc3)OC(=O)c3cc(N(C)C)ccc32)cc1,Potency,[1],inactive
same,Potency,[8],"inconclusive: 54.3 µM [falling, partial curve]"
same,Potency,[2],"inconclusive: 68.4 µM [falling, partial curve, poor fit]"
same,Potency,[5],"inconclusive: 76.7 µM [rising, single point]"
CC/C=C1/OC(=O)c2ccccc21,Potency,[1],inactive
same,Potency,[2],inactive
same,Potency,[3],"inconclusive: 67 µM [cytotoxic, partial curve, poor fit]"
Cc1nc2ccccc2s1,Potency,[1],inactive
same,Potency,[10],inactive
same,Potency,[3],inactive
CCOC(=O)C1=C(C)NC(C)=C(C(=O)OC)C1c1cccc(Cl)c1Cl (stereo not drawn),Potency,[1],"inconclusive: 15 µM [inhibitor, partial curve]"
same,Potency,[2],active: 3.76 µM
same,Potency,[5],"inconclusive: 26.6 µM [rising, partial curve]"
same,Potency,[3],"inconclusive: 26.6 µM [rising, partial curve]"
same,Potency,[6],inactive
CCCCCCC(C)(C)C(=O)O,Potency,[1],inactive
same,Potency,[2],inactive
CC(N)=O,"activity, negative = inhibition",[1],inconclusive: 24.5% [at 240 µM]
same,Potency,[8],inactive
same,Potency,[3],"inconclusive: 72 µM [cytotoxic, single point]"
NC(=O)C(=O)N/N=C/c1ccc([N+](=O)[O-])o1,Potency,[1],inactive
same,Potency,[8],inactive
same,Potency,[3],inactive
same,Potency,[6],inactive
Nc1ncnc2c1ncn2[C@H]1CC[C@@H](CO)O1,Potency,[1],inactive
same,Potency,[5],inactive
same,Potency,[3],inactive
